According to PubChem BioAssay (NCATS):
The shares of active, inactive and inconclusive entries below differ from those in the screen. No potency is given beside an inconclusive call; the fits are too rough. Active and inactive are the calls of the source. Calls follow the shape of the dose curve; as a rule, active = well fitted inhibition curve with a large enough effect; inconclusive = small, poorly fitted or top-dose-only effect; inactive = flat fitted curve, though single readings scatter.

biological target: Dual specificity protein kinase CLK4 (Homo sapiens) (UniProt Q9HAZ1); experiment: qHTS Assay for Inhibitors of CDC-like Kinase 4 (ADP-Glo Assay) (AID 1771); details: recombinant CLK4, ADP-Glo luminescence; series mostly up to 80 µM; activity change, negative = inhibition: at the top concentration; also: nearly all actives have a fitted effect of over 70% in size
UniProt Q9HAZ1, sequence (Q9HAZ1 whole entry, looked up): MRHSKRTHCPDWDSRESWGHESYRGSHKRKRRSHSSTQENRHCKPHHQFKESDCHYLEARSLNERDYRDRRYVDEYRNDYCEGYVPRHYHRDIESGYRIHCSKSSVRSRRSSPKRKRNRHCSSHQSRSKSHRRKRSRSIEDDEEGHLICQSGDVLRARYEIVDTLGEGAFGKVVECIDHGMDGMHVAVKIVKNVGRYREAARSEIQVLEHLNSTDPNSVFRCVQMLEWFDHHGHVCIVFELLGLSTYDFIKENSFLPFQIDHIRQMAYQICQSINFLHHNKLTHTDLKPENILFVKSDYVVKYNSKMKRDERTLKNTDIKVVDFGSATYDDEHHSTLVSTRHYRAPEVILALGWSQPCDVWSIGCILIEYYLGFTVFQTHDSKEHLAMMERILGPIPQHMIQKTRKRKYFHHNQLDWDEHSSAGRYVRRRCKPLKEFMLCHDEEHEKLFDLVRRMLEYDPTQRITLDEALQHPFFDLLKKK
Method in brief: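 In this ADP-Glo format, 1 uM ATP and 100 uM RS peptide served as substrates for 25 nM Clk4 in Mg2+/EGTA/DTT/Triton buffer; reactions ran 1 hr at room temperature before luminescent ADP quantification.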
% is scaled to controls: 0 for no effect and ±100 for the full control effect; potency is read from the fitted curve at half-maximal effect; tags tell the direction and shape of the fitted curve.

Structure (SMILES)	activity change, negative = inhibition	Potency
COc1ccc(-c2nc3cnc(OCc4ccccc4)nc3n(CCC#N)c2=O)cc1	inactive: 5.19%	
COc1ccccc1CNc1ncncc1-c1cccc(NS(C)(=O)=O)c1		inconclusive [falling, single point]
CCNc1ncc2nc(-c3cccc(C#N)c3)c(=O)n(Cc3cccc(OC)c3)c2n1	inactive: -1.8%	
O=c1c(-c2ccc(Cl)cc2)nc2cnc(N3CCNCC3)nc2n1Cc1cccs1	inactive: 2.9%	
Cc1noc(C)c1-c1nccc(NC2CC2)n1		inconclusive [falling, single point]
COc1cccc(-c2nc(NCCNC(C)=O)c3ccccc3n2)c1		active: 28.2 µM
COc1cccc(Cn2c(=O)c(-c3ccc(Cl)cc3)nc3cnc(N4CCOCC4)nc32)c1	inactive: -4.09%	
CC(=O)NCCNc1cc(-c2ccccc2CN(C)C)ncn1	inactive: 5.11%	
Cc1noc(C)c1-c1cc(N(C)Cc2ccco2)ncn1	inactive: -21.9%	
CNc1nc(-c2cccc(NS(C)(=O)=O)c2)nc2ccccc12		active: 22.4 µM
COc1cccc(-c2ccc3ncnc(NCc4ccccc4)c3c2)c1		active: 2.24 µM
Clc1ccccc1-c1nc(NCc2cccs2)c2ccccc2n1		inconclusive [falling, full curve]
COc1ccc2[nH]cc(CCNc3ncnc4ccc(-c5cccnc5)cc34)c2c1		active: 2.24 µM
CN(C)c1ccc(-c2ccc3ncnc(NC4CC4)c3c2)cc1		active: 7.94 µM
FC(F)(F)c1ccccc1-c1nc(-n2ccnc2)c2ccccc2n1		active: 17.8 µM
Fc1ccc(Nc2ncnc3ccc(-c4ccoc4)cc23)cc1		active: 0.708 µM
CC(=O)NCCNc1ncnc2ccc(-c3ccoc3)cc12		active: 1 µM
CN(Cc1ccco1)c1cc(-c2cccc(NS(C)(=O)=O)c2)ncn1		active: 8.91 µM
Cc1nc2cnc(N(C)C)nc2n(CCC#N)c1=O	inactive: -5.71%	
CCNc1ncc2nc(-c3cn(C)c4ccccc34)c(=O)n(-c3ccccc3)c2n1		inconclusive [falling, partial curve]
COc1ccc(Oc2ncc3nc(-c4cccc(C#N)c4)c(=O)n(C)c3n2)cc1	inactive: 1.03%	
CN(C)C(=O)c1ccc(-c2cc(Nc3ccccc3)ncn2)cc1		active: 14.1 µM
COc1ccc(-n2c(=O)cnc3cnc(N4CCOCC4)nc32)cc1		inconclusive [falling, partial curve]
CN(C)c1ccc(-c2cncnc2N(C)Cc2ccco2)cc1		active: 17.8 µM
CCNc1ncc2nc(-c3cc(F)cc(F)c3)c(=O)n(C)c2n1		inconclusive [falling, single point]
CNc1ncncc1-c1c(C)noc1C	inactive: 4.67%	

biological target: Dual specificity protein kinase CLK4 (Homo sapiens) (UniProt Q9HAZ1); experiment: qHTS Assay for Inhibitors of CDC-like Kinase 4 (ADP-FP Assay) (AID 1795); details: Transcreener ADP fluorescence polarization; series mostly up to 50 µM; activity change, negative = inhibition: at the top concentration;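 also: recombinant human CLK4 phosphorylating RS repeat peptide at 1 µM ATP; nearly all actives have a fitted effect of over 60% in size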
Method in brief: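 Kinase activity was followed as ADP output, converted from fluorescence polarization with a calibration curve. Reactions ran one hour at low ATP (1 uM) with RS peptide substrate.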

Structure (SMILES)	activity change, negative = inhibition	Potency
COc1cccc(Cn2c(=O)c(-c3ccc(Cl)cc3)nc3cncnc32)c1	inactive: 6.06%	
CCNc1ncc2ncc(=O)n(CCOC)c2n1		inconclusive [falling, partial curve]
COCCNc1ncnc2ccc(-c3cccc(NS(C)(=O)=O)c3)cc12		active: 11.2 µM
Cc1cnc(CNc2nc(-c3ccoc3)nc3ccccc23)cn1		inconclusive [falling, single point]
COCCNc1cc(-c2ccccc2C)ncn1		inconclusive [falling, partial curve]
COc1ccc(-c2nc3cnc(OCc4ccccc4)nc3n(CCC#N)c2=O)cc1	inactive: 11.6%	
COc1cccc(-c2nc(NCCNC(C)=O)c3ccccc3n2)c1		inconclusive [falling, single point]
COc1ccc2[nH]cc(CCNc3ncnc4ccc(-c5cccnc5)cc34)c2c1		active: 3.16 µM
CN(C)c1ccc(-c2ccc3ncnc(NC4CC4)c3c2)cc1		inconclusive [falling, partial curve]
FC(F)(F)c1ccccc1-c1nc(-n2ccnc2)c2ccccc2n1		inconclusive [falling, partial curve]
Fc1ccc(Nc2ncnc3ccc(-c4ccoc4)cc23)cc1		active: 0.355 µM
CC(=O)NCCNc1ncnc2ccc(-c3ccoc3)cc12		active: 0.355 µM
CCNc1ncc2nc(-c3cn(C)c4ccccc34)c(=O)n(-c3ccccc3)c2n1	inactive: 2.95%	
CN(C)C(=O)c1ccc(-c2cc(Nc3ccccc3)ncn2)cc1		inconclusive [falling, partial curve]
COc1ccc(-n2c(=O)cnc3cnc(N4CCOCC4)nc32)cc1		inconclusive [falling, partial curve]
CN(C)c1ccc(-c2cncnc2N(C)Cc2ccco2)cc1	inactive: 1.83%	
CNc1ncncc1-c1c(C)noc1C	inactive: 10.1%	

biological target: Ubiquitin carboxyl-terminal hydrolase 1 (Homo sapiens) (UniProt O94782); experiment: Inhibitors of USP1/UAF1: Pilot qHTS (AID 504865); details: purified USP1/UAF1, Ub-rhodamine cleavage fluorescence; series mostly up to 54.9 µM; activity change, negative = inhibition: at the top concentration;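 also: rhodamine fluorescence freed from ubiquitin-rhodamine substrate followed over time; nearly all actives have a fitted effect of over 35% in size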; as to activity change, negative = inhibition: top concentration of the series differs between compounds
UniProt O94782, sequence (O94782 whole entry, looked up): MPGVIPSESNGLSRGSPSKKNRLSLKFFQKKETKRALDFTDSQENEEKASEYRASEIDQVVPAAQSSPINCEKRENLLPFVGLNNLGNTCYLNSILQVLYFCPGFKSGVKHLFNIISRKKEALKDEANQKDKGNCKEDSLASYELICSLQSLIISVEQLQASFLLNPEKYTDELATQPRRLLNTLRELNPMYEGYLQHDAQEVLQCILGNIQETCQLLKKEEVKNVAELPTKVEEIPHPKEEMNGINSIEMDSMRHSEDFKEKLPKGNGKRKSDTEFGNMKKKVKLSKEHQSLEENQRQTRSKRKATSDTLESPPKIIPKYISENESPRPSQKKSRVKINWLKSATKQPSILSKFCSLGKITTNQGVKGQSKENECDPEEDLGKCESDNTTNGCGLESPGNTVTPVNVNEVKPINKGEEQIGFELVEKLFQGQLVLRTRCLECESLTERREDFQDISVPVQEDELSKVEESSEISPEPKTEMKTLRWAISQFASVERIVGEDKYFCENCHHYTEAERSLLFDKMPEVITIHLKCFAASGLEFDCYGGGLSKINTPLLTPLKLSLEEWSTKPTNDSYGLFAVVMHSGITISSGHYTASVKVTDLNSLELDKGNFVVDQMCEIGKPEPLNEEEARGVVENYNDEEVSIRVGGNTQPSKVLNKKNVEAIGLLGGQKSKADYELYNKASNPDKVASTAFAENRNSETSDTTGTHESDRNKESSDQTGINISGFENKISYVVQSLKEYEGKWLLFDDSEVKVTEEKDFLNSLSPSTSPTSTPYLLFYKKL
Method in brief: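 Enzyme-free wells gave the negative control, while test wells held 1nM USP1/UAF1 preincubated with compound for 15 min at room temperature. Ub-Rho at 150nM final started the reaction, and fluorescence at 480/540 nm was recorded kinetically.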

Structure (SMILES)	Potency	activity change, negative = inhibition
CN(C)c1ncc2nc(-c3ccc(Cl)cc3)c(=O)n(Cc3ccc(F)cc3)c2n1	inconclusive [inhibitor, partial curve, poor fit]	
COCCNc1cc(-c2ccccc2C)ncn1	inconclusive [inhibitor, partial curve, poor fit]	
O=c1c(-c2ccc(Cl)cc2)nc2cnc(N3CCNCC3)nc2n1Cc1cccs1	inconclusive [inhibitor, partial curve, poor fit]	
Clc1ccccc1-c1nc(NCc2cccs2)c2ccccc2n1	active: 14.1 µM	
CN(C)c1ccc(-c2ccc3ncnc(NC4CC4)c3c2)cc1		inactive: -15.1%
